Laboratory results from patent publication US11897961B2, “Anti-CD123 antibodies and conjugates and derivatives thereof” (IMMUNOGEN, INC., priority 2015, dated 2024).

B1: huCD123-6Gv4.6: CDR-grafted humanized CD123-6 antibody, light chain variable region Gv4 and heavy chain variable region Gv6 (antibody)
heavy: QFQLVQSGAEVKKPGASVKVSCKASGYIFTSSIMHWVRQAPGQGLEWIGYIKPYNDGTKYNEKFKGRATLTSDRSTSTAYMELSSLRSEDTAVYYCAREGGNDYYDTMDYWGQGTLVTVSS[here human IgG1 constant region without letters]
light: DIQMTQSPSSLSASVGDRVTITCRASQDINSYLSWFQQKPGKAPKTLIYRVNRLVDGVPSRFSGSGSGNDYTLTISSLQPEDFATYYCLQYDAFPYTFGQGTKVEIKRTVAAPSVFIFPPSDEQLKSGTASVVCLLNNFYPREAKVQWKVDNALQSGNSQESVTEQDSKDSTYSLSSTLTLSKADYEKHKVYACEVTHQGLSSPVTKSFNRGEC
B2: huCD123-6Gv4.7: CDR-grafted humanized CD123-6 antibody, light chain variable region Gv4 and heavy chain variable region Gv7 (antibody)
heavy: B1 heavy with F2V
light: B1 light
B3: huCD123-6Gv4.7S3-SeriMab-D8: conjugate between D8 and huCD123-6Gv4.7S3 through the oxidized N-terminal Ser on the light chain (conjugate)
heavy: B1 heavy with F2V
light: B1 light with D1S
B4: huCD123-6Gv4.7S3-sSPDB-D1: conjugate between D1 and huCD123-6Gv4.7S3 through Lys linkage via a sulfonated SPDB linker (conjugate)
heavy: B1 heavy with F2V
light: B1 light with D1S
B5: huCD123-6Gv4.7S3-D2: huCD123-6Gv4.7S3 antibody Lys-linked to D2 (conjugate)
heavy: B1 heavy with F2V
light: B1 light with D1S
B6: huCD123-6Gv4.7-CysMab-D4: huCD123-6Gv4.7-CysMab antibody Cys-linked to D4 (conjugate)
heavy: QVQLVQSGAEVKKPGASVKVSCKASGYIFTSSIMHWVRQAPGQGLEWIGYIKPYNDGTKYNEKFKGRATLTSDRSTSTAYMELSSLRSEDTAVYYCAREGGNDYYDTMDYWGQGTLVTVSS[here human IgG1 constant region with changes without letters]
light: B1 light
B7: huCD123-6Gv4.7S3: huCD123-6Gv4.7 with engineered N-terminal serine on the light chain (antibody)
heavy: B1 heavy with F2V
light: B1 light with D1S

Experiments:
[1] = tested on: TF-1 cells; experiment: Inhibition of IL-3-dependent proliferation of TF-1 cells (WST-8); assay type: cell-based, human; details: dose-response
Experimental: (§1) The ability of anti-CD123 antibodies to inhibit IL3-mediated signaling and proliferation was examined in vitro using the erythroleukemia cell line TF-1 that can proliferate only in the presence of one of the following growth factors, either IL-3 or GM-CSF. TF-1 cells were cultured in the complete RPMI medium (RPMI-1640, 10% fetal bovine serum and 50 μg/mL gentamicin sulfate; all reagents were from Invitrogen) supplemented with GM-CSF (2 ng/mL). Prior to setting up the proliferation assays, the cells were washed and then starved of the growth factors overnight. […] TF-1 cells were plated at 6,000 cells per well in the complete RPMI medium in either the presence or absence of 10 μg/mL of an anti-CD123 antibody. A growth factor, either IL-3 (1 ng/mL) or GM-CSF (2 ng/mL), was added to the cells to initiate cell proliferation. […] The relative numbers of viable cells in each well were determined by the colorimetric WST-8 assay (Dojindo Molecular Technologies, Inc., Rockville, MD, US). WST-8 is reduced by dehydrogenases in viable cells to an orange formazan product that is soluble in tissue culture medium. The amount of formazan produced is directly proportional to the number of viable cells. […] Then the absorbance was measured on a plate-reader spectrophotometer in the dual wavelength mode 450 nm/650 nm, and the absorbance at the 650 nm (non-specific light scattering by cells) was subtracted from that at the 450 nm.
TF-1 cells were plated at 6,000 cells per well in 100 μL culture medium. The antibodies were diluted into the culture medium using 6-fold dilution series and 50 μL of the diluted material was added per well. Then IL3 was added to the cells at the final concentration 1 ng/mL. […] Relative cell number in each well was determined by WST-8 assay as described above. […] Likewise, treatment with muCD123-14 or muCD123-6 reduced the relative cell number to less than 1% at the highest antibody concentration tested, with the IC50 values of 0.08 nM or 0.05 nM, respectively.

[2] = target: T1, CD123-expressing HNT-34 cells (Homo sapiens, UniProt P26951); experiment: Flow cytometry binding to HNT-34 cells; details: FIGS. 7B and 7C
T1 construct: endogenous in cells; host or cells: HNT-34 (acute myeloid leukemia cell line)
T1 sequence (P26951 19-378): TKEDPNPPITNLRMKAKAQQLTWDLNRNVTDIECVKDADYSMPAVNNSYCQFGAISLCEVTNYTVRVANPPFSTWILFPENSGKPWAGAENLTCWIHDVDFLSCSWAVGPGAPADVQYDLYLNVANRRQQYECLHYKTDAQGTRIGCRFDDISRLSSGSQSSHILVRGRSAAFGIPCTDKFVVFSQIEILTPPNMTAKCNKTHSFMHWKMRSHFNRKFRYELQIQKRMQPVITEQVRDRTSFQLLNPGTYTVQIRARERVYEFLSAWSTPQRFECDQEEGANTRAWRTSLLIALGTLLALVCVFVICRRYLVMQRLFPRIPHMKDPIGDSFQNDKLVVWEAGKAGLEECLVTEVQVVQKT
Experimental: Binding affinity was tested by flow cytometry using purified antibodies. […] TF-1 cells (5×10^4 cells per sample) were incubated with varying concentrations of murine antibodies in 200 μL FACS buffer (DMEM medium supplemented with 2% normal goat serum). The cells were then pelleted, washed twice, and incubated for 1 hr with 100 μL of phycoerythrin (PE)-conjugated goat anti-mouse IgG-antibody (Jackson Laboratory). The cells were pelleted again, washed with FACS buffer and resuspended in 200 μL of PBS containing 1% formaldehyde. Samples were acquired using a FACSCalibur flow cytometer with the HTS multiwell sampler, or a FACS array flow cytometer, and analyzed using CellQuest Pro (all from BD Biosciences, San Diego, US). For each sample the geomean fluorescence intensity for FL2 was calculated and plotted against the antibody concentration in a semi-log plot. A dose-response curve was generated by non-linear regression and the EC50 value of each curve, which corresponds to the apparent dissociation constant (Kd) of each antibody, was calculated using GraphPad Prism v4 (GraphPad software, San Diego, CA).
FIG. 5A depicts the dose-response curves for each antibody. The value for the apparent dissociation constant (Kd) of each antibody was calculated using GraphPad Prism v4 (GraphPad software, San Diego, CA).
FIGS. 7B and 7C depict the dose-response curves for each antibody and the corresponding conjugates.

[3] = tested on: TF-1 cells; experiment: Proliferation of TF-1 cells grown in the presence of GM-CSF (IL-3-dependence control); assay type: cell-based, human; details: GM-CSF 2 ng/mL
Experimental: as §1, with “medium.” for “medium. The amount of formazan produced is directly proportional to the number of viable cells.”

Row | Molecule | inhibition of IL-3-dependent proliferation of TF-1 cells (in words) [1] | effect of conjugation on binding affinity versus unconjugated antibody [2] | effect on TF-1 cell proliferation in the presence of GM-CSF [3]
1 | B1 | inhibition of IL-3-dependent proliferation of TF-1 cells | – | –
2 | B2 | inhibition of IL-3-dependent proliferation of TF-1 cells | – | –
3 | B3 | – | only moderately affected the binding affinities | –
4 | B4 | – | only moderately affected the binding affinities | –
5 | B5 | – | only moderately affected the binding affinities | –
6 | B6 | – | only moderately affected the binding affinities | –
7 | B7 | completely inhibited at 1 nM | – | no inhibitory effect

Where a chain is given by its changes, count along the chain named.
